The antibiotic and cytotoxicity screens of Wong et al. (2023)
The other results are listed elsewhere or left out.

Key:
HSkMC = human skeletal muscle cells; assay: cytotoxicity call (relative viability < 0.9); details: 10 µM
HepG2 = assay: cytotoxicity call (relative viability < 0.9); details: 10 µM
S. aureus RN4220 = assay: growth inhibition call (relative growth <= 0.2); details: 50 µM

| Compound | cytotoxicity call (HSkMC) | cytotoxicity call (HepG2) | growth inhibition call (S. aureus RN4220) |
| --- | --- | --- | --- |
| C[C@@H]1CCCCO[C@H](CN(C)S(=O)(=O)c2ccccc2)[C@@H](C)CN([C@@H](C)CO)C(=O)c2cc(NC(=O)NC3CCCCC3)ccc2O1 | inactive | inactive | inactive |
| C[C@H]1CN([C@@H](C)CO)C(=O)c2cccc(NC(=O)Nc3ccccc3)c2O[C@@H]1CN(C)Cc1ccc(Cl)c(Cl)c1 | active | inactive | inactive |
| C[C@H]1CN([C@@H](C)CO)C(=O)c2cccc(NC(=O)c3cnccn3)c2O[C@@H]1CN(C)C(=O)NC1CCCCC1 | inactive | inactive | inactive |
| O=C(C[C@H]1C[C@H]2c3cc(NC(=O)Nc4ccc(C(F)(F)F)cc4)ccc3O[C@H]2[C@H](CO)O1)NCc1ccc(Cl)cc1 | inactive | inactive | inactive |
| CN1CCO[C@H]2CCN(C(=O)c3cn(C)cn3)C[C@H]21 | inactive | inactive | inactive |
| C[C@@H]1CN([C@@H](C)CO)C(=O)c2cccc(NC(=O)c3ccc(-c4nccs4)cc3)c2O[C@@H]1CN(C)CC1CCCCC1 | inactive | inactive | inactive |
| C[C@H]1CN([C@@H](C)CO)S(=O)(=O)c2ccc(C#CC3(O)CCCC3)cc2O[C@@H]1CN(C)C(=O)Nc1ccccc1 | inactive | inactive | inactive |
| CC(=O)N[C@H]1[C@H]([C@H](O)[C@H](O)CO)O[C@](O)(C(=O)O)C[C@@H]1O | inactive | inactive | inactive |
| NCc1cc(-c2ccccc2Cl)on1 | inactive | inactive | inactive |
| Cn1cnc(S(=O)(=O)N[C@@H]2C=C[C@H](CC(=O)Nc3ccccc3)O[C@@H]2CO)c1 | inactive | inactive | inactive |
| O=C(CCCCCNC(=O)OCc1ccc(CO[C@H]2C[C@@H](C3CCCCC3)C=C(C(=O)N3CCN(Cc4ccc5c(c4)OCO5)CC3)O2)cc1)NO | inactive | inactive | inactive |
| COC[C@@H](C)NC(=O)C1CN(C(C)=O)C1 | inactive | inactive | inactive |
| COc1cccc(S(=O)(=O)Nc2ccc3c(c2)[C@H]2C[C@H](CC(=O)NCCc4ccccc4)O[C@H](CO)[C@H]2O3)c1 | inactive | inactive | inactive |
| CCOC(=O)c1cc2c(c(-c3ccccc3)n1)[C@@H](CCO[Si](C)(C)C(C)(C)C)N([S@](=O)C(C)(C)C)C2 | inactive | inactive | inactive |
| C=CCNC(=O)[C@@H]1[C@H]2C(=O)O[C@H](c3ccccc3)[C@H](c3ccccc3)N2[C@H](c2ccc(OCCO)cc2)[C@@]12C(=O)Nc1ccc(C#CC3=CCCCC3)cc12 | inactive | inactive | inactive |
| C[C@H]1CN([C@@H](C)CO)C(=O)Cc2cc(NC(=O)Cc3cn(C)c4ccccc34)ccc2O[C@@H]1CN(C)Cc1ccc(C(F)(F)F)cc1 | active | active | inactive |
| Cc1noc(C)c1CO | inactive | inactive | inactive |
| C[C@@H]1CCCCO[C@H](CN(C)C(=O)c2ccncc2)[C@H](C)CN([C@@H](C)CO)C(=O)c2cc(NC(=O)NC3CCCCC3)ccc2O1 | inactive | inactive | inactive |
| C[C@@H]1CN([C@@H](C)CO)C(=O)c2cc(NC(=O)C3CC3)ccc2O[C@@H]1CN(C)Cc1ccc(Oc2ccccc2)cc1 | inactive | inactive | inactive |
| CC(C)NC(=O)N(C)C[C@H]1Oc2c(NS(=O)(=O)c3ccc(Cl)cc3)cccc2C(=O)N([C@@H](C)CO)C[C@H]1C | inactive | inactive | inactive |
| COc1ccc(CN(C)C[C@@H]2OCCCC[C@@H](C)Oc3ccc(NS(=O)(=O)c4ccc(F)cc4)cc3C(=O)N([C@H](C)CO)C[C@H]2C)cc1 | inactive | inactive | inactive |
| C[C@@H]1CN([C@H](C)CO)C(=O)c2cc(NS(=O)(=O)c3cn(C)cn3)ccc2O[C@H]1CN(C)S(=O)(=O)c1cn(C)cn1 | inactive | inactive | inactive |
| COc1ccc(S(=O)(=O)N(C)C[C@H]2Oc3c(NS(=O)(=O)c4ccccc4)cccc3C(=O)N([C@@H](C)CO)C[C@@H]2C)cc1 | inactive | inactive | inactive |
| C[C@@H]1CN([C@@H](C)CO)C(=O)c2c(c3ccccc3n2C)-c2ccccc2CO[C@H]1CN(C)Cc1ccc2c(c1)OCO2 | inactive | inactive | inactive |
| C[C@H]1CN([C@@H](C)CO)C(=O)Cc2cc(NS(=O)(=O)c3cn(C)cn3)ccc2O[C@@H]1CN(C)S(=O)(=O)c1cccs1 | inactive | inactive | inactive |
| O=C(O)c1cnc[nH]1 | inactive | inactive | inactive |
| C[C@@H]1CN([C@H](C)CO)C(=O)c2cccc(NS(=O)(=O)c3ccc(F)cc3)c2O[C@H]1CN(C)C(=O)Nc1cccc2ccccc12 | inactive | inactive | inactive |
